The assay concerns the target T1, human THAP1 (THanatos-Associated Protein-1), full length (human, UniProt Q9NVV9 1-213).
T1 construct: Used as Gal4-BD (pGBKT7) or Gal4-AD (pGADT7, pGAD424) fusion in yeast two-hybrid and as 35S-labelled in vitro translated protein (template pGBKT7-THAP1); also called hTHAP1; THAP1 wild type
T1 sequence: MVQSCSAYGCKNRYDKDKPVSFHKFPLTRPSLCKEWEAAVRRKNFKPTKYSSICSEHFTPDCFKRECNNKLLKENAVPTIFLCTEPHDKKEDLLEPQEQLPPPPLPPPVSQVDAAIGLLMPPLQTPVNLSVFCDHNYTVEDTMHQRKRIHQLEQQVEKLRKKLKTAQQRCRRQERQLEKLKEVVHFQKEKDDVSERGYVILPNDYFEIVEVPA
The assay can be described thus: yeast two-hybrid, AH109, His/Ade selection. An excerpt: 285) and CXCL10-2 (5′-[…]-3′) (SEQ ID NO. 286), No. 2403734 (IFNγ) with primers IFN-1 (5′-[…]-3′) (SEQ ID NO: 287) and IFN-2 (5′-[…]-3′) (SEQ ID NO: 288). The PCR products were digested with EcoRI and BamHI, and cloned between EcoRI and BamHI cloning sites of vector pGBKT7 (Clontech).

We go through 1 molecule from patent publication US20060275295A1 (published 2006).

B1: human chemokine CXCL10, mature form ([…]) (ligand)
chain: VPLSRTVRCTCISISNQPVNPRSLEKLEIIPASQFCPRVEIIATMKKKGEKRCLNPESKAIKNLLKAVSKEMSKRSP
notes: Gal4-BD fusion (pGBKT7) in yeast or in vitro translated from pGBKT7-CXCL10; tags not built in; also called IP10/CXCL10; IP10
With B1, the binding result is “binds”.
